# Where a name gives a salt, the structure may show the parent alone. In all, about 2,800 compounds were measured (“cell viability relative to vehicle”: median about 0.98, lowest 2% from about 0.45 on). Some of the results follow.
# Test system: NCI-H2228 alectinib-DTP
# Assay: cell viability relative to vehicle (fraction of vehicle); NCI-H2228 is an ALK-positive lung cancer line and DTP means drug-tolerant persister; higher = less growth inhibition
# Settings: 100 nM; treatment time 6 days
# Outline: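 NCI-H2228 parental cells and drug-tolerant persister cells were plated in 384-well plates; the persisters had been generated with 1000 nM of a targeted drug over 13 days. One day later, the 3114-agent TargetMol anti-cancer compound library was added at 100 nM, with DMSO serving as vehicle. ATP was measured 6 days after that using the CellTiter-Glo 3D Cell Viability Assay. Values are cell viability expressed relative to vehicle-treated cells.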
row,Compound,cell viability
1,N#C/C(=C\c1ccc(O)c(O)c1)C(=O)NCc1ccccc1,0.897
2,C#C[C@]1(O)CC[C@H]2[C@@H]3CCC4=CC(=O)CC[C@@H]4[C@H]3CC[C@@]21CC [Levonorgestrel],1.04
3,C[C@@H]1CCCCCCCCCCCCC(=O)C1 [Muscone],1.09
4,Cc1cc(SCc2sc(-c3ccc(C(F)(F)F)cc3)nc2C)ccc1OCC(=O)O,1.05
5,Cc1cc(C(=O)Nc2cccc(C(=O)Nc3cccc(C(F)(F)F)c3)c2)on1,1.1
6,Cn1cc(-c2ccc3c(c2)CCN3C(=O)Cc2cccc(C(F)(F)F)c2)c2c(N)ncnc21,0.952
7,Oc1cccc(-c2nc(N3CCOCC3)c3oc4ncccc4c3n2)c1,0.717
8,CCC(=O)N1CC[C@H](Nc2ncnc3c2CN(c2cnc(OC)c(C(F)(F)F)c2)CC3)C1 [Leniolisib],0.904
9,Fc1ccc(-c2c3cccc(C(F)(F)F)c3nn2Cc2ccc(F)cc2Cl)cc1,1.03
10,CCOc1cc2c(c(F)c1OCC)C(=N)N(CC(=O)c1cc(N3CCOCC3)c(OC)c(C(C)(C)C)c1)C2 [Atopaxar Hydrobromide],1.06
11,O=C(/C=C/c1ccc(O)c(O)c1)O[C@@H]1C[C@](O)(C(=O)O)C[C@@H](O)[C@H]1O [Chlorogenic Acid],0.993
12,O=c1ccccn1CC1(O)CCN(Cc2ccccc2)CC1,1.06
13,CN(C)CC/C=C1/c2ccccc2COc2ccc(CC(=O)O)cc21 [Olopatadine hydrochloride],0.879
14,Nc1ncnc2n[nH]c(Nc3ccc(F)cc3)c12,1.03
15,CN(C)Cc1ccc(S(=O)(=O)n2ccc(/C=C/C(=O)NO)c2)cc1 [Resminostat hydrochloride],1.15
16,c1ccc(CN(CC2=NCCN2)c2ccccc2)cc1 [Antazoline hydrochloride],1.13
17,CCc1c(-c2ccc(C(=O)NC)nc2)cnc(N)c1-c1ccc(O)cc1,1.13
18,C[C@H](NC(=O)C(=O)Nc1ccccc1C(C)(C)C)C(=O)N[C@@H](CC(=O)O)C(=O)COc1c(F)c(F)cc(F)c1F [Emricasan],0.914
19,C=CC(=O)Nc1cccc(Oc2nc(Nc3ccc(N4CCN(C)CC4)cc3)nc3ccsc23)c1 [Olmutinib],0.977
20,Cc1ccc(-n2nc(C(C)(C)C)cc2NC(=O)Nc2ccc(OCCN3CCOCC3)c3ccccc23)cc1 [Doramapimod],0.976
21,O=c1c(-c2ccc(O[C@@H]3O[C@H](CO)[C@@H](O)[C@H](O)[C@H]3O)cc2)coc2cc(O)cc(O)c12 [Sophoricoside],0.955
22,COCCOc1ccc(N2CCN(CCn3ncc4c3nc(N)n3nc(-c5ccco5)nc43)CC2)cc1 [Preladenant],1.02
23,C=C1CC[C@H]2C(=C)CC[C@H]3C(=C)C(=O)O[C@@H]3[C@@H]12 [Dehydrocostus Lactone],0.984
24,CC(C)S(=O)(=O)c1ccc2nccc(Nc3ccc4scnc4c3)c2c1,0.974
25,CC(=O)Nc1ccn([C@@H]2O[C@H](CO)[C@@H](O)[C@H]2O)c(=O)n1 [N4-Acetylcytidine],0.97

row,Compound,cell viability
1,CNC(=O)c1ccc(C)c(-n2c(C)cc(OCc3ccc(F)cc3F)c(Br)c2=O)c1,0.926
2,Cc1cc(OCc2nnc(SC3CCCC3)n2-c2cccnc2)ccc1-c1ccc(S(C)(=O)=O)cc1,0.799
3,O=C1NC(=O)C(=Cc2ccc(-c3ccc(F)cc3)o2)S1 (stereo in doubt),1
4,CN(C)C/C=C/C(=O)Nc1cc2c(Nc3ccc(F)c(Cl)c3)ncnc2cc1O[C@H]1CCOC1 [Afatinib Dimaleate],0.668
5,CN(C)C/C=C/C(=O)Nc1cc2c(Nc3ccc(F)c(Cl)c3)ncnc2cc1O[C@H]1CCOC1 [Afatinib],0.829
6,C=C(C)[C@@H]1CC=C(CO)CC1 [Perillyl alcohol],1.16
7,CN(C)CC(c1ccc(O)cc1)C1(O)CCCCC1 (centres undefined) [Desvenlafaxine],0.779
8,O=C(NOCC(O)CO)c1cc(Br)c(F)c(F)c1Nc1ccc(I)cc1F (centres undefined),0.907
9,O=C(O)COc1ccc(Br)cc1/C=C1\SC(=S)N(Cc2cccnc2)C1=O [Skp2 Inhibitor C1],1.08
10,Cc1ccc2nc(N)[nH]c(=O)c2c1Sc1ccncc1 [Nolatrexed],1.13
11,CC(C)c1c(-c2ccccc2)nc2c(C#N)c[nH]n2c1=O,1
12,O=C(Nc1ccccc1Br)N[C@@H]1CCN(c2ccc(C(F)(F)F)cn2)C1,1.04
13,Cc1ccccc1C(C(=O)NC1CCCCC1)N(C(=O)Cn1cnc2ccccc21)c1cccc(F)c1 (centres undefined),1.18
14,COc1c(N2CCNC(C)C2)c(F)cc2c(=O)c(C(=O)O)cn(C3CC3)c12 (centres undefined) [Gatifloxacin],0.927
15,O=C(c1ccccc1)c1ccc2n1CCC2C(=O)O (centres undefined) [Ketorolac tromethamine salt],1.12
16,O=C(C[S+]([O-])Cc1ccco1)NC/C=C\COc1cc(CN2CCCCC2)ccn1 (centres undefined) [Lafutidine],1.06
17,CCC(=O)O[C@]1(C(=O)CO)CC[C@H]2[C@@H]3CCC4=CC(=O)CC[C@]4(C)[C@H]3CC[C@@]21C [17 alpha-propionate],0.936
18,CC(C)C(C)C(O)C(O)C(C)C1CCC2C3COC(=O)C4CC(O)C(O)CC4(C)C3CCC12C (centres undefined) [Brassinolide],1.01
19,CCC(=O)Nc1cccc(Oc2nc(Nc3ccc(N4CCN(C)CC4)cc3OC)ncc2Cl)c1,1.16
20,C=CC(=O)Nc1cccc(Nc2nc(Nc3ccc(OCCOC)cc3)ncc2F)c1 [Spebrutinib],0.774
21,N#Cc1c(NC(=O)c2cccc3ccccc23)sc2c1CCCC2,0.789
22,COC(=O)Nc1nc2cc([S+]([O-])c3ccccc3)ccc2[nH]1 (centres undefined) [Oxfendazole],1.22
23,Nc1ccn([C@@H]2CS[C@H](CO)O2)c(=O)n1 [Lamivudine],1.09
24,CCc1c(Cl)c(O)c(Cl)c(O)c1C(=O)O[C@H]1[C@H](O)[C@H](OC)[C@H](OC/C2=C\C=C\C[C@H](O)/C(C)=C/[C@H](CC)[C@@H](O[C@@H]3OC(C)(C)[C@@H](OC(=O)C(C)C)[C@H](O)[C@@H]3O)/C(C)=C/C(C)=C/C[C@@H]([C@@H](C)O)OC2=O)O[C@@H]1C [Fidaxomicin],1.05
25,Cc1cc(N)c2ccccc2[n+]1CCCCCCCCCC[n+]1c(C)cc(N)c2ccccc21 [Dequalinium chloride],1

row,Compound,cell viability
1,COc1ccccc1OCC(O)COC(N)=O (centres undefined) [Methocarbamol],0.947
2,COc1cc(N2CCC(N3CCN(C)CC3)CC2)ccc1Nc1ncc(Cl)c(Nc2ccccc2P(C)(C)=O)n1 [Brigatinib],0.754
3,O=C1NCCCc2c1oc1ccc(O)cc21,0.924
4,O=C1N[C@@H](Cc2c[nH]c3ccccc23)C(=O)N2CCC[C@@H]12 [Brevianamide F],1.06
5,O=C(Nc1cc(C(F)(F)F)ccc1O)Nc1cc(C(F)(F)F)ccc1O,0.826
6,CCCCC1=NC2(CCCC2)C(=O)N1Cc1ccc(-c2ccccc2-c2nnn[nH]2)cc1 [Irbesartan],0.724
7,NC(=O)Cc1cccc(C(=O)c2ccccc2)c1N [Nepafenac],1.04
8,C[C@H]1COC2=C1C(=O)C(=O)c1c2ccc2c1CCCC2(C)C [Cryptotanshinone],0.78
9,CN(C)CC[C@H](CSc1ccccc1)Nc1ccc(S(=O)(=O)NC(=O)c2ccc(N3CCN(Cc4ccccc4-c4ccc(Cl)cc4)CC3)cc2)cc1[N+](=O)[O-],1.09
10,COc1ccc(-c2coc3cc(O[C@@H]4O[C@H](CO)[C@@H](O)[C@H](O)[C@H]4O)ccc3c2=O)cc1 [Ononin],1.03
11,CC[C@H]1OC(=O)[C@H](C)[C@@H](O[C@H]2C[C@@](C)(OC)[C@@H](O)[C@H](C)O2)[C@H](C)[C@@H](O[C@@H]2O[C@H](C)C[C@H](N(C)C)[C@H]2O)[C@](C)(OC)C[C@@H](C)C(=O)[C@H](C)[C@@H](O)[C@]1(C)O [Clarithromycin],1.01
12,O=[N+]([O-])c1ccc2c(c1)S(=O)(=O)C=C2 [Stattic],1.03
13,CCC(=O)N1CCOc2c(cc(-c3ccc(OC)c(OC)c3)cc2OC[C@H]2CCCN(C)C2)C1 [I-CBP112 hydrochloride],0.963
14,COc1cc(O)c(CC=C(C)C)c2c1C(=O)CC(c1ccc(O)cc1)O2 (centres undefined) [Isoxanthohumol],1.15
15,c1ccc(CNc2ccccc2)cc1 [N-Phenylbenzylamine],1.23
16,Nc1ccccc1NC(=O)c1ccc(CNC(=O)OCc2cccnc2)cc1 [Entinostat],0.764
17,CCCC[S+]([O-])c1sc2nc(-c3cccs3)cc(-c3ccccc3)c2c1N (centres undefined),1
18,N=C(N)NC(=O)c1nc(Cl)c(N)nc1N [Amiloride hydrochloride],1.11
19,C[C@@H]1CC[C@]2(C(=O)O)CC[C@]3(C)C(=CC[C@@H]4[C@@]5(C)CC[C@H](O)[C@@](C)(CO)[C@@H]5CC[C@]43C)[C@@H]2[C@]1(C)O [Rutundic acid],1.02
20,CN(C)C(=O)COC(=O)Cc1ccc(OC(=O)c2ccc(NC(=N)N)cc2)cc1 [Camostat mesilate],0.956
21,"COc1cc(/C=C/C(=O)OC[C@H]2O[C@H](O[C@]3(CO)O[C@H](CO)[C@@H](O)[C@@H]3OC(=O)/C=C/c3cc(OC)c(O)c(OC)c3)[C@H](O)[C@@H](O)[C@@H]2O)cc(OC)c1O [3,6'-Disinapoyl sucrose]",0.873
22,CCOc1cc([C@@H](CS(C)(=O)=O)N2C(=O)c3cccc(NC(C)=O)c3C2=O)ccc1OC [Apremilast],0.967
23,COc1ccc2ccc(=O)oc2c1 [Herniarin],1.2
24,CCc1cncnc1N1CCN(Cc2nc3ccc(C(F)(F)F)cc3[nH]2)CC1,1.01
